PubChem BioAssay (NCI)
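Where inhibition never reached the appropriate level, the endpoint shown equals the highest concentration tested. Otherwise, values were interpolated linearly from a five-concentration, 48-hour dose response in 96-well plates. GI50 = concentration required for 50% inhibition of growth. The concentration for full growth arrest is given as TGI.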

The molecules below were run on NCI-H322M lung (assay: NCI tumour cell line growth inhibition, 48 h).

SMILES | TGI [µM] | GI50 [µM]
COC(=O)CCC(=O)c1ccc2c(c1)CC1(C2)Cc2ccc3c(c2C1)CCCC3=O (configuration not stated) | > 100 | –
CC[C@]12C=CCN3CCC4(c5cc([C@@]6(C(=O)OC)CC7CN(CCc8c6[nH]c6ccccc86)C[C@@H]6CCC[C@H]76)c(OC)cc5N(C)C4[C@](O)(C(=O)OC)C1OC(C)=O)C32 (some centres not stated) | > 10 | –
N#Cc1c2nc3ccccc3nc2n2ccc3ccccc3c12 | > 100 | –
CC(=O)OCc1cn(S(=O)(=O)c2ccc(C)cc2)cn1 | > 100 | –
CCNCCNC(=O)c1ccc(Br)cc1 | > 100 | –
CCOC1SC(SC)=NN1C(=O)C(OC(C)=O)C(OC(C)=O)C(OC(C)=O)C(OC(C)=O)C(=O)N1N=C(SC)SC1OCC (configuration not stated) | > 100 | –
O=C(N/C(=C\c1ccccc1)C1Nc2ccccc2C(=O)O1)c1ccccc1 (configuration not stated) | > 100 | –
CCN(CC)CC(O)C1CCC(c2ccccc2)CC1 (configuration not stated) | > 100 | –
COC(=O)NN1C(C)=C(C(=O)OC)C2(CCOC2=O)C1(C)O (configuration not stated) | > 100 | –
C/C(=N\Nc1nc2ccccc2o1)c1ccncn1 | > 100 | –
O=C1NN(c2ccccc2)C(=O)C2C3c4ccccc4C(c4ccccc43)C12 (configuration not stated) | > 100 | –
Cc1cc(-c2ccccc2)cc2[n+]1CC=C2 | > 100 | –
COc1cc(-c2cc(CCC(=O)Nc3ccccc3[N+](=O)[O-])n(-c3ccc([N+](=O)[O-])cc3[N+](=O)[O-])n2)ccc1O | > 10 | –
O=C(O)CNS(=O)(=O)c1ccc(NC(=O)Nc2ccccc2)cc1 | > 100 | –
COc1ccc(/C=C/C(=O)c2ccc(Nc3ccnc4cc(Cl)ccc34)cc2)cc1 | > 100 | > 100
C[C@]12CCC(=O)C=C1CC[C@@H]1C2CC[C@]2(C)Nc3c(ncn3-c3ccc(F)cc3)CC12 (some centres not stated) | > 100 | –
COC(=O)c1ccc(C2SCC(=O)N2NC(=O)C(O)c2ccccc2)cc1 (configuration not stated) | > 100 | > 100
Cc1cc(NCCCCCCNc2cc(C)nc3ccc(Cl)cc23)c2cc(Cl)ccc2n1 | > 100 | –
CC[C@@]1(O)C(=O)OCc2c1cc1n(c2=O)Cc2c-1nc1ccccc1c2/C=N/OC(C)(C)C | 8.36 | 0.043
COc1ccc(C(=O)O)c(Cc2ccc3ccccc3c2)c1 | > 100 | –
C[C@@H]1OC(=O)/C(=C\N(C)C)[C@H]2CC(=O)N(CCc3cn(S(=O)(=O)C(F)(F)F)c4ccccc34)C[C@H]12 | > 100 | –
Cc1ccc(C)c(NC(=O)C(Cc2c[nH]c3ccccc23)NC(=O)OCc2ccccc2)c1 (configuration not stated) | 44.4 | –
O=C([O-])c1ccccc1Nc1ccccc1[O-].[Ni+3].[OH3+].[OH3+].[OH3+] | > 100 | > 100
C=C(C(=O)O)[C@@H]1C[C@@H]2O[C@H]1CC(C)=CCC/C(C)=C/CC[C@@]2(C)O | > 100 | –

SMILES | TGI [µM] | GI50 [µM]
ClC[Si]12OCCN(CCO1)CCO2 | > 100 | –
CN(C)CCC1(C2=CCCC2)CC/C(=C\c2ccccc2)C1=O (configuration not stated) | 30.3 | –
S=C1SC(c2ccc(Cl)cc2)(c2ccc(Cl)cc2)c2ccccc21 | > 100 | –
Cc1cccc(NC(=S)N/N=C(/c2ccccc2)c2ccccn2)c1 | 4.72 | –
CSc1ccc2c(cc1=O)[C@@H](NC(=O)c1ccc(F)cc1)CCc1cc(O)c(O)c(O)c1-2 | > 100 | –
C[n+]1ccc(-c2c3nc(c(-c4ccc5c(ccc[n+]5C)c4)c4ccc([nH]4)c(-c4cc[n+](C)cc4)c4nc(c(-c5ccc6c(ccc[n+]6C)c5)c5ccc2[nH]5)C=C4)C=C3)cc1 | > 50 | 38.5
COc1cc2c(cc1OC)C(Cc1c3ccccc3cc3ccccc13)N(C)CC2 (configuration not stated) | 59.8 | –
COc1cc([C@@H]2c3cc4c(c(O)c3C[C@H]3COC(=O)[C@@H]32)OCO4)cc(OC)c1O | > 200 | 0.00887
COC(=O)[C@@H]1C[C@]2(CC=C(C)C)c3ccccc3N(S(=O)(=O)c3ccccc3)[C@@H]2N1C(=O)OC | > 100 | –
CCCCCC(/C=N/N)C(O)(C(F)(F)F)C(F)(F)F (configuration not stated) | > 10 | –
Cc1nn(C)c2c1C(=O)N(C)CC(=O)N2C | > 100 | –
COc1ccc([C@@H]2CC(=O)NCCCCNCCCN2)cc1 | > 100 | –
S=C(Nc1ccccc1)N1N=C2c3ccccc3CC[C@H]2[C@@H]1c1ccccc1 | > 100 | –
O=C1C(N2C(=O)c3ccccc3C2=O)CN1C(COCc1ccccc1)c1ccc(OCc2ccccc2)cc1 (configuration not stated) | > 100 | –
CC(Oc1ccc2cc(C(=O)c3ccccc3)c(=O)oc2c1)C(=O)O (configuration not stated) | > 100 | –
CCCN1CCN(c2ccc3nc(-c4ccc5nc(-c6ccc(OCC)c(OCC)c6)[nH]c5c4)[nH]c3c2)CC1 | 2.57 | 0.818
Oc1cc2ccccc2cc1-c1n[nH]c(=S)n1-c1ccc(Cl)cc1 | > 100 | 66.6
CC(C)(O)[C@H](CCO)O[Si](c1ccccc1)(c1ccccc1)C(C)(C)C | 30.3 | –
O=C(O)C1OC(Oc2cc(O)c3c(=O)cc(-c4ccc(O)cc4)oc3c2)C(O)C(O)C1O (configuration not stated) | > 100 | –
COC(=O)c1scc(N)c1-n1ccc(=O)[nH]c1=O | > 100 | –
O=C1OC(c2ccccc2)N/C1=C\c1ccc2c(c1)OCO2 (configuration not stated) | > 100 | –
CCN(CC)C1=Nc2ccccc2-n2c(C)cnc2C1 | > 100 | –
Cc1nn(-c2ccc(Br)cc2)c(C)c1CC(=O)c1cc(O)ccc1O | 45.2 | 9.47
COC(=O)C(Cc1nc2ccccc2[nH]c1=O)C(=O)C(=O)Nc1ccc(OC)cc1[N+](=O)[O-] (configuration not stated) | > 100 | –
